In PubChem BioAssay AID624170 (National Center for Advancing Translational Sciences (NCATS), 2012):
Screen size: about 410,000 compounds; about 850 (0.21%) were called active. The inconclusive results got no clear call from the source; some entries with a clear call stand among them for comparison. The call rests on the fitted dose curve; in most records, active means well fitted inhibition curve with a large enough effect; inconclusive means small, poorly fitted or top-dose-only effect, or another doubt; inactive means no such curve, though single readings can be large or run the other way. Potencies beside an inconclusive call are fits to weak or partial responses and may not hold up.

Target: Glutaminase kidney isoform, mitochondrial (Homo sapiens) (UniProt O94925)
UniProt O94925, sequence (O94925 whole entry, looked up, canonical isoform): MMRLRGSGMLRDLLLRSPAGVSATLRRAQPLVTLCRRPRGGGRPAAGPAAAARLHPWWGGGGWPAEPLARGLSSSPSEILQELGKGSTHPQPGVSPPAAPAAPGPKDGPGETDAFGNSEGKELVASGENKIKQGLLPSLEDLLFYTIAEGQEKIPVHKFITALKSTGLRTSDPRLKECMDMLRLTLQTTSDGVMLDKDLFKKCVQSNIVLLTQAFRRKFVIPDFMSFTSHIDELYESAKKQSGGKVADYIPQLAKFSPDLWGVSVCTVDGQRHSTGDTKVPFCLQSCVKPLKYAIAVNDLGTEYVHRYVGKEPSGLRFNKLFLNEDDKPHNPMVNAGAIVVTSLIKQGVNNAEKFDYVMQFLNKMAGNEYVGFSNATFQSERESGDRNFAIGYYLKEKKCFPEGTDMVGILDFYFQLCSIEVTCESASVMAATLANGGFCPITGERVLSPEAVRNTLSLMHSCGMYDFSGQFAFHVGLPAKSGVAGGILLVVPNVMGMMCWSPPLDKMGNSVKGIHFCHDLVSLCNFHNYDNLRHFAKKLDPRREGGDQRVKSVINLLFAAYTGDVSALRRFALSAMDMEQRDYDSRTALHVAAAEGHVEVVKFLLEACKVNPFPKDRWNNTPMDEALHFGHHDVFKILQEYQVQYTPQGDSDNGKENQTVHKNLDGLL
Experiment: qHTS for Inhibitors of Glutaminase (GLS)
Conditions: GLS enzymatic activity, qHTS titration; series mostly up to 45.5 µM; activity change, negative = inhibition: at the top concentration
Procedure, shortened: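 hKGA in 45 mM KH2PO4 (pH 8.2), 0.02% Tween-20 with compound, then 1mM L-Glutamine (stock as added) plus glutamate oxidase/HRP/Amplex red coupling mix. Fluorescence read initially and after 30 min at RT; signal change reflects glutamate formation.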
On the % scale 0 is the no-effect control and ±100 the full control effect; potency means the concentration at half of the fitted maximal effect; tags describe the fitted curve by direction and shape.

Potency, active:
COc1cccc(/C=C(/C#N)c2nc3ccccc3[nH]2)c1OC(C)C(=O)O (stereo unspecified) 12.6 µM
Clc1ccc(CNc2ccccc2NCc2ccc(Cl)nc2)cn1 12.6 µM
CCN1C(=O)c2cccc3c(S(=O)(=O)Nc4ccccc4O)ccc1c23 11.2 µM
COc1ccc(CCNc2nc(-c3ccc(F)cc3)c(CC(=O)O)s2)cc1OC 11.2 µM

Potency, inconclusive:
CCN(CC)C(=O)C1=C(C)NC(=S)NC1c1cn(-c2ccccc2)nc1-c1ccc(Cl)cc1 (stereo unspecified) 12.6 µM [inhibitor, partial curve, poor fit]
CC(C)(C)c1ccccc1OCCCCCn1ccnc1 11.2 µM [inhibitor, partial curve]
COc1ccc(S(=O)(=O)Nc2ccc(Oc3ncccn3)c(Cl)c2)cc1 35.5 µM [inhibitor, single point]
COc1ccc(N2CCCC2)c(NC(=O)c2ccc(Br)o2)c1 11.2 µM [inhibitor, partial curve, poor fit]
COC(=O)c1sccc1NC(=O)c1cc(OC)cc(OC)c1 25.1 µM [inhibitor, single point]
Cc1ccc(OCCN2C(=O)c3ccccc3C2=O)cc1 0.562 µM [inhibitor, partial curve, poor fit]
CCCc1ccc(C2=Nn3c(nnc3C(C)C)SC2)cc1 25.1 µM [inhibitor, single point]
N#Cc1c(Nc2ccccc2Cl)s[nH]c1=O 10 µM [inhibitor, partial curve, poor fit]
Cc1[nH]c(=O)[nH]c(=O)c1NC(=O)CSc1ncccc1-c1nc2ccccc2[nH]1 28.2 µM [inhibitor, single point]
COc1ccccc1NC(=O)c1cc(S(=O)(=O)NCc2ccccc2)ccc1F 10 µM [inhibitor, partial curve]
CCCC1c2ccsc2CCN1C(=S)NC (stereo unspecified) 5.62 µM [inhibitor, single point]
Oc1cc2c(cc1O)[C@H]1c3ccc(O)c(O)c3OC[C@@]1(O)C2 1.78 µM [inhibitor, full curve, poor fit]
COc1ccc(C(=O)NC2CCCCC2)cc1S(=O)(=O)N1CCOCC1 35.5 µM [inhibitor, single point]
NC(=O)C(CC(=O)O)NC(=O)[C@@H]1CCCNc2c(I)cc([N+](=O)[O-])cc2C(=O)N[C@@H](CO)C(=O)N[C@@H](Cc2ccc(O)cc2)C(=O)N1 (stereo partly specified) 17.8 µM [inhibitor, single point]
COc1ccccc1-c1nc(C#N)c(NCCCn2ccnc2)o1 22.4 µM [inhibitor, single point]
CCNC(=S)N/N=C/c1sc(N2CCCCC2)nc1-c1cccs1 14.1 µM [inhibitor, partial curve]
NC(=O)C1CC(=O)N(c2ccc(OCc3ccc(Cl)cc3)cc2)C1 (stereo unspecified) 35.5 µM [inhibitor, single point]
Cc1ccc(S(C)(=O)=N/C=C2\C(=O)c3sccc3N(C)S2(=O)=O)cc1 (stereo unspecified) 35.5 µM [inhibitor, single point]
COc1ccc(-c2cc(NC(C)=O)c3ncc(-c4ccccc4)n3c2)c(OC)c1 22.4 µM [inhibitor, partial curve, poor fit]
O=C(O)c1cc2ncc(CCO)cn2n1 14.1 µM [inhibitor, partial curve, poor fit]
CCCNCC1COc2ccccc2O1 (stereo unspecified) 22.4 µM [inhibitor, single point]
CCOC(=O)c1c(NC(=O)c2cc(-c3ccc(O)cc3)on2)sc(C(C)=O)c1C 0.562 µM [inhibitor, full curve, poor fit]
COc1ccccc1OCCC(=O)OCC(=O)Nc1cc(S(=O)(=O)N(C)C)ccc1Cl 6.31 µM [inhibitor, single point]
c1coc(-c2nc3ccccc3nc2-c2ccco2)c1 22.4 µM [inhibitor, single point]
CCN(CC)c1nc(-c2cccc(OC)c2O)nc2ccccc12 35.5 µM [inhibitor, single point]
CCOC(=O)c1c(C)n(-c2ccccc2)c2ccc(O)c(CN(C)C)c12 10 µM [inhibitor, partial curve]

Activity change, negative = inhibition, inactive:
N#Cc1ccccc1OCC(=O)OCC(=O)NC1CCCCCC1 0.168%
Cc1c(NS(=O)(=O)c2ccccc2)cc(Cl)c(O)c1C 63.2%
COc1ccc(NC(=S)N(CCc2c(C)[nH]c3ccc(C)cc23)Cc2cccnc2)cc1 3.36%
COc1ccc(N(CC(=O)NCc2ccccc2Cl)S(=O)(=O)c2c(C)[nH]c(=O)[nH]c2=O)cc1 4.77%
COc1ccc(C(NC(=O)/C=C\c2ccco2)c2ccc(OC)c(OC)c2)cc1 (stereo unspecified) -11.3%
Cc1cc(=O)oc2cc(OCC(=O)NCc3ccccn3)ccc12 8.64%
Cc1ccc(-n2nc3c(c2NC(=O)c2cccs2)CSC3)cc1 24.5%
N#Cc1ccc(NC(=O)Cn2c3[n+](c4ccc(C(F)(F)F)cc42)CCCCC3)cc1 0%
CCOC(=O)C1=C(C)OC(N)=C(C#N)C1c1cccs1 (stereo unspecified) -1.07%
CN(Cc1ccccc1)C(=O)c1ccc(NC(=O)Cc2ccc(NC(=O)C3CCN(S(=O)(=O)c4cccc([N+](=O)[O-])c4)CC3)cc2)cc1 1.54%
CCCc1nc2c(=O)n(C)c(=O)nc-2n(C)n1 2.74%
CSc1ccccc1Sc1cc(C(=O)O)c2ccccc2n1 15.5%
COc1cc(OC)c(OC)cc1CNCCNC(=O)c1ccco1 -1.6%
Cc1ccc(NC(=O)C(Cc2ccccc2)NS(=O)(=O)c2ccc3c(c2)oc(=O)n3C)cc1F (stereo unspecified) -0.355%
COc1cc2c(oc(=O)c3cc(C)cc(OC)c32)c2c(C3OC(C)C(O)C(C)(O)C3O)ccc(O)c12 (stereo unspecified) 2.54%
O=C(O)CCCNC(=O)CC1S/C(=N/N=C/c2ccccc2O)NC1=O (stereo unspecified) 14.6%
